The other results are listed elsewhere or left out. Single values of this set are uncertain. Values with irradiation are relative to irradiated vehicle.
Tests used:
A549-Dual [1] = experiment: NF-kB reporter (SEAP) activity, viability-corrected, relative to vehicle (fold change vs vehicle); higher = more activation of STING-IRF / NF-kB immune response reporter
A549-Dual [2] = experiment: ISRE reporter (Lucia luciferase) activity, viability-corrected, relative to vehicle (fold change vs vehicle); higher = more activation of STING-IRF / NF-kB immune response reporter
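Wherever NF-kB reporter (SEAP) activity, viability-corrected, relative to vehicle is given: viability correction based on the alamar blue assay, with concentrations leaving 10% survival or less dropped.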

Structure (SMILES) | NF-kB reporter (A549-Dual [1]; 0.1 µM, irradiation: 8 Gy/4 fr) | NF-kB reporter (A549-Dual [1]; 0.1 µM, irradiation: none) | NF-kB reporter (A549-Dual [1]; 0.3 µM, irradiation: 8 Gy/4 fr) | NF-kB reporter (A549-Dual [1]; 0.3 µM, irradiation: none) | NF-kB reporter (A549-Dual [1]; 1 µM, irradiation: 8 Gy/4 fr) | NF-kB reporter (A549-Dual [1]; 1 µM, irradiation: none) | NF-kB reporter (A549-Dual [1]; 3 µM, irradiation: 8 Gy/4 fr) | NF-kB reporter (A549-Dual [1]; 3 µM, irradiation: none) | NF-kB reporter (A549-Dual [1]; 10 µM, irradiation: 8 Gy/4 fr) | NF-kB reporter (A549-Dual [1]; 10 µM, irradiation: none) | ISRE reporter (A549-Dual [2]; 0.1 µM, irradiation: 8 Gy/4 fr) | ISRE reporter (A549-Dual [2]; 0.1 µM, irradiation: none) | ISRE reporter (A549-Dual [2]; 0.3 µM, irradiation: 8 Gy/4 fr) | ISRE reporter (A549-Dual [2]; 0.3 µM, irradiation: none) | ISRE reporter (A549-Dual [2]; 1 µM, irradiation: 8 Gy/4 fr) | ISRE reporter (A549-Dual [2]; 1 µM, irradiation: none) | ISRE reporter (A549-Dual [2]; 3 µM, irradiation: 8 Gy/4 fr) | ISRE reporter (A549-Dual [2]; 3 µM, irradiation: none) | ISRE reporter (A549-Dual [2]; 10 µM, irradiation: 8 Gy/4 fr) | ISRE reporter (A549-Dual [2]; 10 µM, irradiation: none)
CC(C)(C)c1nc(-c2cccc(NS(=O)(=O)c3c(F)cccc3F)c2F)c(-c2ccnc(N)n2)s1.CS(=O)(=O)O [Dabrafenib Mesylate] | 0.619 | 0.785 | 0.479 | 0.699 | 0.516 | 0.824 | 0.72 | 0.888 | 0.656 | 0.931 | 0.541 | 0.812 | 0.165 | 0.329 | 0.156 | 0.304 | 0.205 | 0.254 | 0.21 | 0.326
CC1CC2C(C(O)CC3(C)C2CCC3(O)C(=O)CO)C2(C)C=CC(=O)C=C12 (stereo not given) [Methylprednisolone] | 0.664 | 1.19 | 0.976 | 1.06 | 1.2 | 0.814 | 1.39 | 0.811 | 0.568 | 1.56 | 0.0851 | 0.556 | 0.154 | 0.341 | 0.0863 | 0.258 | 0.0785 | 0.257 | 0.0669 | 0.212
CCCCCOC(=O)Nc1nc(=O)n(C2OC(C)C(O)C2O)cc1F (stereo not given) [Capecitabine] | 1.13 | 1.08 | 1.46 | 1.05 | 1.18 | 1 | 1.38 | 0.883 | 1.08 | 0.88 | 1.11 | 1.06 | 1.54 | 1.06 | 1.07 | 0.986 | 1.22 | 0.818 | 0.9 | 0.838
CCC(c1ccc(O)cc1)C(CC)c1ccc(O)cc1 (stereo not given) [Hexestrol] | 0.982 | 0.911 | 0.888 | 0.919 | 0.967 | 0.95 | 0.821 | 1.01 | 1.14 | 0.968 | 1.01 | 1.02 | 0.921 | 1.05 | 1.03 | 0.947 | 1.02 | 1 | 1.12 | 1.04
CNC(=O)c1cc(Oc2ccc(NC(=O)Nc3ccc(Cl)c(C(F)(F)F)c3)c(F)c2)ccn1 [Regorafenib (BAY 73-4506)] | 1.06 | 1.04 | 1.07 | 1.23 | 0.765 | 1.15 | 0.919 | 0.979 | 0.735 | 0.847 | 0.805 | 0.839 | 0.888 | 0.847 | 0.645 | 0.735 | 0.297 | 0.41 | 0.206 | 0.284
Cc1ccc(-c2cc(C(F)(F)F)nn2-c2ccc(S(N)(=O)=O)cc2)cc1 [Celecoxib] | 0.939 | 1.16 | 0.778 | 1.31 | 1.37 | 0.963 | 1.43 | 1.06 | 0.69 | 0.686 | 0.928 | 0.833 | 0.886 | 1.03 | 0.887 | 0.862 | 0.945 | 1.03 | 0.887 | 1.42
COc1cc2nccc(Oc3ccc(NC(=O)C4(C(=O)Nc5ccc(F)cc5)CC4)cc3)c2cc1OC.O=C(O)CC(O)C(=O)O [Cabozantinib malate (XL184)] | 0.863 | 0.957 | 0.902 | 0.939 | 0.932 | 1.18 | 1.01 | 1.04 | 0.994 | 0.931 | 0.844 | 0.713 | 0.908 | 0.974 | 0.889 | 1.01 | 1.15 | 1.31 | 1.11 | 1.82
COc1c(C)c2c(c(O)c1C/C=C(\C)CCC(=O)OCCN1CCOCC1)C(=O)OC2 [Mycophenolate Mofetil] | 1.02 | 1.1 | 1.12 | 1.25 | 1.07 | 1.14 | 1.27 | 1.35 | 0.622 | 1.27 | 1.07 | 0.971 | 0.929 | 0.549 | 0.123 | 0.432 | 0.237 | 0.224 | 0.0537 | 0.284
CC(C(=O)O)c1ccc(-c2ccccc2)c(F)c1 (stereo not given) [Flurbiprofen] | 0.744 | 0.633 | 0.736 | 0.72 | 0.772 | 0.599 | 0.622 | 0.596 | 0.622 | 0.858 | 0.907 | 0.776 | 0.737 | 0.924 | 0.721 | 0.832 | 0.732 | 0.942 | 0.738 | 0.792
Cc1c(-c2ccc(O)cc2)n(Cc2ccc(OCCN3CCCCCC3)cc2)c2ccc(O)cc12.Cl [Bazedoxifene HCl] | 0.947 | 1.01 | 1 | 0.975 | 0.981 | 1.04 | 1.14 | 1.07 | 1.03 | 1.06 | 1.03 | 1.07 | 1.04 | 1.05 | 1.09 | 1.08 | 1.34 | 1.5 | 1.31 | 1.95
CCN1CCN(Cc2ccc(Nc3ncc(F)c(-c4cc(F)c5nc(C)n(C(C)C)c5c4)n3)nc2)CC1 [Abemaciclib] | 0.938 | 1.14 | 0.925 | 1.11 | 0.871 | 1.49 | 0.817 | 1.27 | 0.768 | 1.23 | 0.913 | 1.3 | 0.94 | 1.3 | 0.866 | 1.3 | 0.612 | 1.15 | 0.892 | 2.19
CCC(Nc1ncnc2[nH]cnc12)c1nc2cccc(F)c2c(=O)n1-c1ccccc1 (stereo not given) [Idelalisib (CAL-101, GS-1101)] | 1.18 | 1.15 | 1.33 | 1.04 | 1.1 | 1.58 | 1.06 | 1.17 | 1.02 | 1.1 | 1.12 | 0.945 | 1.23 | 1.03 | 1.14 | 1.08 | 1.09 | 0.749 | 1.11 | 1.19
CC1CCC2(C(=O)OC3OC(COC4OC(CO)C(OC5OC(C)C(O)C(O)C5O)C(O)C4O)C(O)C(O)C3O)CCC3(C)C(=CCC4C5(C)CC(O)C(O)C(C)(CO)C5CCC43C)C2C1C (stereo not given) [Asiaticoside] | 1.21 | 1.49 | 1.11 | 1.69 | 1.34 | 1.24 | 1.36 | 1.36 | 1.35 | 1.23 | 1.07 | 1.51 | 0.869 | 1.01 | 0.934 | 1.01 | 0.911 | 1.12 | 0.945 | 0.944
O=C(O)c1cc(O)c(O)c(O)c1 [Gallic acid] | 1.05 | 1.09 | 1 | 0.999 | 1.07 | 1.47 | 0.951 | 1.3 | 1.08 | 1.16 | 1.16 | 1.25 | 1.18 | 1.12 | 1.17 | 0.998 | 1.15 | 0.939 | 1.08 | 1.14
Cc1ccc(C(=O)c2ccc(CC(=O)O)n2C)cc1 [Tolmetin] | 0.907 | 0.676 | 0.674 | 1.06 | 1.07 | 0.564 | 1.34 | 1.04 | 0.52 | 0.347 | 0.909 | 0.665 | 0.91 | 1.03 | 0.942 | 0.546 | 0.807 | 1.04 | 0.606 | 0.631
COc1cc2nccc(Oc3ccc(NC(=O)NC4CC4)c(Cl)c3)c2cc1C(N)=O.CS(=O)(=O)O [lenvatinib Mesylate] | 1.01 | 1.09 | 0.901 | 0.955 | 1.01 | 1.26 | 0.852 | 1.01 | 0.783 | 1.01 | 0.962 | 0.873 | 0.832 | 0.883 | 0.979 | 0.774 | 0.712 | 0.361 | 0.645 | 0.596
CN1CCC(OC(c2ccccc2)c2ccccc2)CC1.Cl [Diphenylpyraline hydrochloride] | 1.57 | 2.36 | 1.48 | 2.22 | 1.79 | 1.52 | 2.19 | 1.45 | 1.93 | 1.15 | 1.39 | 2.42 | 1.32 | 1.95 | 1.32 | 1.33 | 1.14 | 1.22 | 1.98 | 1.24
COc1ccc2cc(CCC(C)=O)ccc2c1 [Nabumetone] | 1.05 | 1.3 | 1.23 | 1.05 | 1.64 | 1.07 | 1.16 | 1.05 | 1.14 | 1.13 | 1.18 | 0.999 | 1.25 | 1.08 | 1.14 | 1.12 | 1.09 | 0.987 | 1.03 | 1.04
COc1ccccc1N1CCN(CC(O)COc2cccc3ccccc23)CC1.Cl.Cl (stereo not given) [Naftopidil DiHCl] | 1.15 | 1.22 | 1.45 | 1.18 | 1.06 | 1.09 | 1.18 | 0.93 | 0.842 | 0.955 | 0.938 | 0.951 | 1.4 | 1.13 | 0.953 | 0.879 | 1.12 | 0.772 | 0.972 | 1.05
C/C=C(/C(=C/C)c1ccc(O)cc1)c1ccc(O)cc1 [Dienestrol] | 0.878 | 0.955 | 0.995 | 0.955 | 0.878 | 0.912 | 0.927 | 0.942 | 1.01 | 1.04 | 0.906 | 0.947 | 1.07 | 1.01 | 0.946 | 0.972 | 0.945 | 0.965 | 1.01 | 0.945
CN(C)N=Nc1[nH]cnc1C(N)=O [Dacarbazine] | 0.831 | 1.1 | 0.973 | 1.13 | 0.819 | 0.998 | 0.969 | 0.887 | 0.873 | 0.997 | 1.02 | 1.06 | 1.19 | 1.04 | 0.836 | 1.03 | 0.977 | 0.925 | 0.927 | 1.09
CO/N=C(\C(=O)NC1C(=O)N2C(C(=O)OCOC(=O)C(C)(C)C)=C(C)CSC12)c1csc(N)n1.Cl (stereo not given) [Cefetamet pivoxil hydrochloride] | 0.977 | 0.897 | 1.11 | 0.806 | 1.13 | 0.826 | 0.925 | 0.855 | 0.929 | 1.07 | 0.939 | 0.833 | 0.923 | 0.631 | 0.794 | 0.634 | 0.834 | 0.858 | 0.885 | 0.678
CC(=O)OCC(=O)C1(O)CCC2C3CCC4=CC(=O)C=CC4(C)C3C(O)CC21C (stereo not given) [Prednisolone Acetate] | 0.854 | 1.3 | 1.07 | 1.39 | 1.49 | 0.953 | 1.65 | 0.944 | 0.719 | 1.13 | 0.131 | 0.551 | 0.202 | 0.372 | 0.0972 | 0.28 | 0.108 | 0.232 | 0.105 | 0.237
CN(C)CCN(Cc1ccc(Cl)cc1)c1ccccn1.Cl [Chloropyramine hydrochloride] | 1.25 | 2.06 | 1.11 | 1.71 | 1.62 | 1.13 | 1.8 | 1.22 | 1.36 | 1.28 | 1.09 | 1.8 | 1.06 | 1.39 | 1.27 | 1.23 | 1.01 | 1.53 | 1.3 | 1.21
Cc1cccc(N(C)C(=S)Oc2ccc3ccccc3c2)c1 [Tolnaftate] | 0.956 | 0.93 | 0.96 | 0.92 | 0.794 | 0.86 | 0.863 | 0.706 | 0.815 | 0.8 | 1.15 | 0.775 | 1.08 | 0.923 | 0.81 | 0.904 | 0.895 | 0.654 | 0.85 | 0.84

Source: the supplement of paper PMC9174493
